# ± gives the standard deviation of the averaged measurements. Whole data set: some 33,000 sequences, median “E-score (dimensionless, -0.5 to 0.5)” near -0.049, cut for the highest 2% near 0.37. The list shows a part of the results.
# Tested on: T1, PmTbr T-box DNA-binding domain (GST fusion)
# T1 sequence: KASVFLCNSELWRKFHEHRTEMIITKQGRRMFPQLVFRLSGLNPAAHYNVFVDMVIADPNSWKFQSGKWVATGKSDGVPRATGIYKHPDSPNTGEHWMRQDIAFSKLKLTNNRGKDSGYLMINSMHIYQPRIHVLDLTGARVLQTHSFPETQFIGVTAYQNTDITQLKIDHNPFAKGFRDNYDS
# Assay: PBM E-score of 8-mer (E-score (dimensionless, -0.5 to 0.5)); Tbr is Tbrain of the sea star Patiria miniata (Pm) or the sea urchin Strongylocentrotus purpuratus (Sp); higher = stronger binding preference; most listed sequences are background and not binding sites
# Conditions: the construct has about 5 more residues each side
# Method in brief: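 Primer extension turned Universal Agilent oligonucleotide arrays double-stranded. They were incubated with 200 nM protein in PBS (pH 7.5); the protein was a GST-fused Tbr T-box DNA-binding domain expressed in BL21 E. coli at 20 °C and purified on glutathione. Every ungapped 8-mer was scored from the scanned, quantified probe intensities, and the Universal PBM Analysis Suite gave each an enrichment E-score averaged over duplicate arrays.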
row,Sequence,PBM E-score of 8-mer
1,TAGCGCAA,0.275 ± 0.0038
2,ACGCAGTA,-0.0663 ± 0.018
3,GGATGTCA,0.0662 ± 0.069
4,CTCTGCTA,-0.0752 ± 0.016
5,CCGTGAGA,0.173 ± 0.029
6,ATGCTCAA,-0.254 ± 0.066
7,CACGTTTC,0.232 ± 0.037
8,ATCACTGG,-0.0944 ± 0.042
9,ATCTTGCG,0.00688 ± 0.039
10,GGACACAA,-0.113 ± 0.042
11,CAGTCGCG,0.196 ± 0.016
12,CCTACCAC,0.183 ± 0.061
13,ATAGCGGG,0.107 ± 0.034
14,CATCATAG,-0.0931 ± 0.025
15,ATGGGAAC,-0.199 ± 0.059
16,ATTCCGAA,-0.309 ± 0.064
17,CCCTATCG,-0.11 ± 0.042
18,ACTTAGTC,-0.0896 ± 0.017
19,CACGGAAC,-0.00268 ± 0.045
20,TCTAGCAA,0.105 ± 0.0068
21,CGTCCTTC,-0.328 ± 0.055
22,AGAAAGGC,-0.00281 ± 0.027

row,Sequence,PBM E-score of 8-mer
1,CGTATAGA,-0.109 ± 0.022
2,GCATCTAA,-0.162 ± 0.043
3,ACTTAAAT,-0.228 ± 0.078
4,ACTGTAAG,0.013 ± 0.011
5,TCGTAGCA,0.218 ± 0.016
6,GTGTTAAC,0.438 ± 0.017
7,CGCCCACC,-0.151 ± 0.013
8,TATAGTGA,0.118 ± 0.016
9,GGAGAGAC,-0.121 ± 0.037
10,ACTTAGAC,-0.0159 ± 0.0036
11,GCCCTACA,-0.311 ± 0.022
12,ATAAAGAT,-0.306 ± 0.037
13,AGCTTGTA,-0.179 ± 0.064
14,CTATGCGC,0.0229 ± 0.027
15,AGCTCCTA,0.0875 ± 0.0077
16,TCTCGCAA,0.307 ± 0.05
17,GAGCATCA,-0.194 ± 0.035
18,TCTGATCA,-0.102 ± 0.012
19,GAGGGCTA,-0.0569 ± 0.064
20,CAACCTTC,-0.0738 ± 0.037
21,AGTAAGCA,-0.148 ± 0.017
22,GCTTTTCC,-0.257 ± 0.055

row,Sequence,PBM E-score of 8-mer
1,ACTTTGAT,-0.0929 ± 0.011
2,GAGTGTTA,0.385 ± 0.012
3,AAAGTACA,-0.0134 ± 0.017
4,AGCCGTCC,-0.226 ± 0.0056
5,ACATCCAC,0.1199 ± 0.00095
6,GGTGCTGA,0.367 ± 0.021
7,AAAAATAG,-0.0128 ± 0.043
8,AATGGTAC,-0.0872 ± 0.059
9,CGGCAAGA,-0.0203 ± 0.03
10,ACGGTGCT,0.164 ± 0.072
11,CCGGGTCG,0.0846 ± 0.057
12,GGCACTAA,0.193 ± 0.09
13,ACCGGATG,-0.0972 ± 0.0075
14,AGGATGAT,-0.124 ± 0.032
15,CGACGCGA,0.19 ± 0.026
16,GGCATCCC,-0.17104 ± 0.00013
17,GGCTCAGA,-0.154 ± 0.053
18,CCACACAA,0.0617 ± 0.024
19,CGTGGTGA,0.167 ± 0.018
20,ACTAGCAA,0.00762 ± 0.0026
21,CATCCAGA,-0.0251 ± 0.062
22,AGCCCACT,-0.0697 ± 0.041

row,Sequence,PBM E-score of 8-mer
1,ACCCGATA,0.0682 ± 0.024
2,CGGCGCGA,0.317 ± 0.034
3,GCTGGTAC,-0.158 ± 0.01
4,CCACGCCA,0.0474 ± 0.0034
5,CTTGTAGC,0.0941 ± 0.012
6,ACGCGGAC,0.0056 ± 0.00074
7,GTCGTAGA,-0.234 ± 0.027
8,AGCCCCCT,-0.31 ± 0.029
9,AGTACCTG,-0.0965 ± 0.026
10,CCATTCTA,-0.138 ± 0.0054
11,ACTTCGTG,0.109 ± 0.041
12,ACGCGGCT,-0.00017 ± 0.077
13,AGCTACAT,-0.192 ± 0.037
14,CGAAAATC,0.00722 ± 0.052
15,TATCGTCA,0.093 ± 0.051
16,CGAGATCA,0.0764 ± 0.039
17,CATTGCCA,0.149 ± 0.056
18,CCACTCCA,-0.0105 ± 0.011
19,CTTCGGGA,-0.106 ± 0.052
20,CCGCGTGA,0.319 ± 0.023
